This is one part of the list. Read counts after selection give these values, which scatter widely.
test system: SARS-CoV-2 3CLpro (nsp5); test: substrate phage enrichment score (protease-eluted vs HEPES control, +1 offset) (ratio); higher = better cleaved substrate; details: selection round: 4; protease elution time: 15 min
Procedure: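 Random heptapeptide substrate phage display (M13 pIII fusion, heptapeptide between an N-terminal biotinylated AviTag GLNDIFEAQKIEWHE and pIII; phages immobilised on streptavidin) eluted by cleavage with 50 nM protease in 20 mM HEPES at 37 °C. Selected phages were NGS sequenced, and the enrichment score is (reads in protease sample + 1)/(reads in HEPES blank-selection control + 1).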

Substance	substrate phage enrichment score
SAAAHQN	1.71
RKQREYR	0.455
GHHVHAA	1.46
RSTRVMQ	> 21
QCAVISQ	0.281
SSPYRCP	0.289
RYFQGGS	0.557
HYFQGGS	0.5
SSRSQQE	1.54
LLQSSKG	7.82
SSRWCPG	14
RISGEGS	> 21
WPQTESC	> 49
ESLTAEC	1.06
HNSPSGK	> 35
SGAAHHH	0.762
DEAAHHH	0.528
NDGGCRA	> 21
RHGGQSV	3
DASHHRS	> 21
DPIKWTP	> 37
QPTELER	0.0952
VVSWGFM	2.86

Substance	substrate phage enrichment score
ASLKVPG	2.45
CPDLDVT	1.08
NGAGSMP	> 21
QRSGRSG	48.2
EPKWPVY	3.6
TTAAHHH	1.18
TRGHSSV	0.0213
RRPHIII	0.721
NRAAHHH	0.58
QWLHGQH	4.4
WYPRTSQ	0.2
SGRKSTN	2.86
PTLQSNA	> 48
PKFQERQ	> 69
NSQRLYS	0.0714
TPVPKTC	> 40
YPKQEPT	> 25
QPAAHHH	0.707
ASTRGTK	0.692
PECEYLR	> 22
ASASGSD	5.64
RNMSHSG	> 22
CTLQSNL	> 24

Substance	substrate phage enrichment score
QVKPNGF	4.14
TCGSTAA	0.318
RAAAQQH	0.714
ALTCHPR	1.12
PAGNPLL	> 25
RGCQAHP	0.158
FPGERTH	2.16
LRRNAEC	8
ALRVDRG	3.17
WGSQPVS	10.7
PAQTLTT	> 38
GSAGIER	0.52
PIQCLNA	1.4
SKPVTLQ	> 75
RPASLVE	> 25
QQCPAYG	0.222
IDAAKEQ	3
PKHTREH	4.8
EHQYHHG	0.212
QSILQGT	> 464
GCTHVPV	11.7
LDIYAEK	1.75
HGVVTVT	2.29

Substance	substrate phage enrichment score
NKTVADG	> 57
DTECRIG	0.412
ARLQSRS	> 61
ERSAVMQ	> 21
TEAWNEI	2.27
FTTPKGP	8.29
NAAAHLN	> 104
SSISSMK	> 27
FQREAPK	3.29
HRGAILQ	50.2
PRNNRLQ	9.67
PIKWHLQ	> 22
ATGVVCQ	> 32
SAAAHHP	0.763
SQMTTKP	> 27
RDRLHRQ	1.28
CVKPYVN	> 68
CVLYKKL	0.01
ALKSDGS	> 28
SAAAKHH	1.17
GAINTLM	> 32
VREQGRK	9
STPAHHH	0.687

Substance	substrate phage enrichment score
PNRSGLI	0.1
TGPGELR	10
VSASRLQ	> 21
RMQTNPT	1.91
HTSWDFR	> 21
AFWNEMR	> 40
SIMREPV	> 32
SCPGSRS	> 114
CSAVLQS	> 24
VNAPIMR	13
HNCSGRG	2.09
PDDETRR	1.2
RDTANLQ	> 83
TRQSPPL	0.643
TLYGPTG	> 29
ARMPLVQ	9.5
PGLSALQ	> 287
KRPWRCT	> 30
SQHQAGP	2.76
CLNLSRP	> 25
STEHGRN	> 23
SCYMMQA	> 23
VLTRSRE	9.17

Substance	substrate phage enrichment score
QQGVTHR	3.4
PKTPTLS	0.308
DVDEKGF	4.36
RPTTVLQ	> 60
PRLPSFK	> 76
PGGSAAA	0.22
VRPTQLQ	> 74
CTMFRAL	2.69
GHAAAHH	0.483
SASPHPG	> 36
ASAGSRV	1.31
NAHQQWK	0.132
PEGTLLQ	> 40
PQSRKDR	> 46
LSNAKQG	> 37
RCQMKWP	5.5
SENGPFG	1.3
GTSTKLQ	> 49
MHLNGSC	1.44
TEVTTLH	> 26
ECDVIRF	> 23
SLLRCRV	> 22
EQNLHDG	0.917

Substance	substrate phage enrichment score
NNEAAHH	0.692
SKPLSTS	6.17
ARHTGVQ	0.136
AVAHHHH	0.381
NDRALRF	> 29
ARTSELQ	153
TYSITQS	> 58
VTSGSSG	> 31
SSKATGK	2.22
ASAILNR	> 24
SANCCGG	4
KEQTPDH	8.69
SRRGPNN	0.969
SNLPPVN	3.6
ACVPRLH	3.6
EAPERGL	13.7
PVFPPEM	> 40
SQGPSTD	11.7
SESLRQG	6.67
GLKRGSC	> 81
RLQSGTR	> 48
DRWKCGD	> 36
CIFRVVV	1.76

Substance	substrate phage enrichment score
VTNSQYP	0.19
KSNVNSR	6
HNNESSN	> 22
PVEATCR	> 32
RSHPKTD	0.292
SIFRVVV	1.09
EESCSST	2.59
GPCVLQS	> 25
GICVSKQ	> 22
ATFQGGS	5.75
SHSVPEL	0.276
IDPAFIP	1
EAPATDR	10.7
SSRGELQ	10
VSYLQSC	> 56
ERNRLGL	0.2
RSRTNMG	4.67
GPTYSAK	0.3
CKLRQGH	0.55
CKKSKRI	0.8
ACKDYQG	0.381
TSTEPYS	> 23
DHKESQM	4.75

Reference: the supplement of paper PMC10185492
